Values marked as one replicate rest on one cluster of the flow cell; about a third of the high ones do not repeat.
Test system: ATP
Test: switch fluorescence ratio, 500 uM ATP over buffer (Cy3 cluster intensity, sum of 5 cycles each) (fold (ratio)); higher = stronger signal-on switching upon ATP binding; sequences stand for … in TCGTCGGCAGCGTCAGATGTGTATAAGAGACAGTTTTTTTTTTTTTTTTTTTTTTTTT…TC
Conditions: aptamer strand: ATP DNA aptamer (quencher-CACCTGGGGGAGTATTGCGGAGGAAGG + anchor), 100 nM annealed; ATP concentration: 500 uM; one replicate
How it was run: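 After annealing to 100 nM quencher-labelled ATP aptamer, Cy3-labelled switching-strand clusters on a modified Illumina MiSeq flow-cell were imaged in selection buffer. A second image followed after 15 min with 500 uM ATP at 22 °C, and five such buffer/ATP cycles were done, each separated by NaOH stripping and re-annealing. The fluorescence ratio, averaged per switch-domain sequence, is summed target-cycle over summed buffer-cycle Cy3 intensity per cluster, with clusters outside 100-1000 RFU excluded.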
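Note: ATP exposure 15 min at 22 °C before imaging.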

GGAGTCCAGA
switch fluorescence ratio: 0.998

GGAAACATCA
switch fluorescence ratio: 1.04

CCGTCCTAGT
switch fluorescence ratio: 1.06

TCCATCGGTG
switch fluorescence ratio: 0.998

TTGGCTACTC
switch fluorescence ratio: 1.15

TTGCCATAGG
switch fluorescence ratio: 1.02

AATAAGTACG
switch fluorescence ratio: 1.24

AAGACTTGAA
switch fluorescence ratio: 0.996

GCGGTCTGGC
switch fluorescence ratio: 0.93

ATTGCCTTGC
switch fluorescence ratio: 1.05

TTAAATATGA
switch fluorescence ratio: 0.965

ACTATAGTC
switch fluorescence ratio: 1.02

GTTGCTTGTA
switch fluorescence ratio: 1

CTCCTCTGTG
switch fluorescence ratio: 1.67

ATGCTCGGCG
switch fluorescence ratio: 1.03

TCGATTAGGC
switch fluorescence ratio: 0.975

TTATACCCCA
switch fluorescence ratio: 1.08

AAAGGTGTAC
switch fluorescence ratio: 1.11

AAATGCTTTG
switch fluorescence ratio: 1.03

CTTAGCTTGT
switch fluorescence ratio: 0.983

ACGGCGGA
switch fluorescence ratio: 0.996

TTAATTCAAT
switch fluorescence ratio: 0.987

GTACTATTTC
switch fluorescence ratio: 1

ATCTGCCAGC
switch fluorescence ratio: 1.04

AGACTCCTAA
switch fluorescence ratio: 1.05

CGAAGATCCG
switch fluorescence ratio: 1

CGTGTCTGGA
switch fluorescence ratio: 1.01

CCGGTCCGGT
switch fluorescence ratio: 1.03

ATAAATATGC
switch fluorescence ratio: 1.08

TAGGGCCGAA
switch fluorescence ratio: 1

GGTCACCCCG
switch fluorescence ratio: 1.02

GCAGGGCCGT
switch fluorescence ratio: 0.976

TTGGTCTGTC
switch fluorescence ratio: 0.965

TCGCTTTTCT
switch fluorescence ratio: 0.998

GCGGAAGCTC
switch fluorescence ratio: 1

CGGTGCGCT
switch fluorescence ratio: 1.04

TTCTTTACAT
switch fluorescence ratio: 0.986

AGGAAATGAG
switch fluorescence ratio: 1.1

GCGAAAGGTC
switch fluorescence ratio: 1

GCTTTAGGGT
switch fluorescence ratio: 0.986

TTGAGATTGT
switch fluorescence ratio: 1.01

GTCGGCGGAG
switch fluorescence ratio: 1.02

TTCCCGACAT
switch fluorescence ratio: 1.05

GACGTAATGG
switch fluorescence ratio: 2.77

TACAAAGGGC
switch fluorescence ratio: 1.03

CGCGCTGGAG
switch fluorescence ratio: 1

ACCGGTAACT
switch fluorescence ratio: 1

GAGTGTGGCC
switch fluorescence ratio: 0.996

TCCTACCCTC
switch fluorescence ratio: 1.29

AAGCGCTCGT
switch fluorescence ratio: 1.02

CGGGGATCGC
switch fluorescence ratio: 0.954

CATTTGACCG
switch fluorescence ratio: 0.915

TCCGCGATCT
switch fluorescence ratio: 1.44

CGGAGTTGCA
switch fluorescence ratio: 1.08

TGTCTAGG
switch fluorescence ratio: 0.97

AGATACTCCT
switch fluorescence ratio: 2.33

CAGGACGGAC
switch fluorescence ratio: 1.02

CCCACATAGC
switch fluorescence ratio: 1.32

GGACCTGAGG
switch fluorescence ratio: 1.08

TATAAACTT
switch fluorescence ratio: 1.03

GTTCCGTACT
switch fluorescence ratio: 1.1

AATGCAGGG
switch fluorescence ratio: 0.99

TAGCAGTTTC
switch fluorescence ratio: 1.08

TATGCGTAGG
switch fluorescence ratio: 1

TGATTGAGGT
switch fluorescence ratio: 1.01

GATCCGGGAT
switch fluorescence ratio: 0.985

CGTCTGGTG
switch fluorescence ratio: 0.96

ACTCAGTCAT
switch fluorescence ratio: 1.18

AGTTAATGCG
switch fluorescence ratio: 0.994

GTTAACTGCG
switch fluorescence ratio: 1.05

AATTACTCAT
switch fluorescence ratio: 1.01

TCAAATGAA
switch fluorescence ratio: 0.992

GAAGGGACAA
switch fluorescence ratio: 1.04

GTATGTCAGT
switch fluorescence ratio: 1.02

ATCTCTTGTG
switch fluorescence ratio: 1.03

TTCCTGACAA
switch fluorescence ratio: 1.01

GTCTTGGTGC
switch fluorescence ratio: 1.09

GGGAGCGAGA
switch fluorescence ratio: 0.979

GGCACAAAGA
switch fluorescence ratio: 0.994

ATACAATTAG
switch fluorescence ratio: 1

TGGGCCCGCT
switch fluorescence ratio: 1.03

GATCTCTCAA
switch fluorescence ratio: 1.03

GTAGCAAATG
switch fluorescence ratio: 1.64

AGATCATGCA
switch fluorescence ratio: 0.989

GTGCTTTTAT
switch fluorescence ratio: 0.996

TTAACCCTGC
switch fluorescence ratio: 1.04

AACCCGCTGT
switch fluorescence ratio: 1.11

ATACTCCAAT
switch fluorescence ratio: 1.13

AGAATGTCAA
switch fluorescence ratio: 1.01

TCACAGGCCT
switch fluorescence ratio: 1.01

TGCGAGTAT
switch fluorescence ratio: 1.03

AGAGACCCCC
switch fluorescence ratio: 1.1

GGACCGCGGA
switch fluorescence ratio: 1.02

CTCTGACACG
switch fluorescence ratio: 1.06

GGTCATAAAC
switch fluorescence ratio: 1.01

TTCTTGACAT
switch fluorescence ratio: 1

ATTTAGAACA
switch fluorescence ratio: 0.98

TAACTGGTGC
switch fluorescence ratio: 1.23

CAGGAGTTGG
switch fluorescence ratio: 0.981

CCGGTTAATC
switch fluorescence ratio: 1.7

TTGATTTTCT
switch fluorescence ratio: 1.02

AGAACGTTTT
switch fluorescence ratio: 1.06

TTAACCACC
switch fluorescence ratio: 1.2

GACACCGGCC
switch fluorescence ratio: 1.32

AAGGTCTGAT
switch fluorescence ratio: 0.996

CGATCTGGTA
switch fluorescence ratio: 0.985

GAGTTACGCT
switch fluorescence ratio: 1.03

CGGTACATCT
switch fluorescence ratio: 1.01

ATACGGCTTG
switch fluorescence ratio: 1.01

CTTCACTCCG
switch fluorescence ratio: 4.38

CTCTTCAAGA
switch fluorescence ratio: 1.02

GCGGTTTGGA
switch fluorescence ratio: 0.99

GTGCAAGAGT
switch fluorescence ratio: 1.07

TTGTACACCA
switch fluorescence ratio: 1.08

GTTTGCGCTG
switch fluorescence ratio: 1.02

CAGAAGAGGG
switch fluorescence ratio: 0.978

GAAACGGGAG
switch fluorescence ratio: 1.08

GCGGAATTCC
switch fluorescence ratio: 1.01

GACGTGGACA
switch fluorescence ratio: 1.07

AACGGACATT
switch fluorescence ratio: 1.21

AAAGAAAGA
switch fluorescence ratio: 0.995

GAGGTCGGTC
switch fluorescence ratio: 1.04

ACATGTGTGG
switch fluorescence ratio: 1.02

GCCTTTTTGA
switch fluorescence ratio: 0.999

GAATCAGACT
switch fluorescence ratio: 0.97

GGGACCTGGG
switch fluorescence ratio: 0.996

GACCTCGTGT
switch fluorescence ratio: 1.02

GGTGTTCCGA
switch fluorescence ratio: 0.963

CGCAGGAATG
switch fluorescence ratio: 1.13

ACTACGTCG
switch fluorescence ratio: 1.06

CTGCCCAGTT
switch fluorescence ratio: 1.08

AATGGTGACA
switch fluorescence ratio: 0.98

GAATGTTACG
switch fluorescence ratio: 1.03

CCGTTTTTGA
switch fluorescence ratio: 1

CTTAGGGAGG
switch fluorescence ratio: 0.995

CATGATGCAC
switch fluorescence ratio: 1.06

AATTATTGTC
switch fluorescence ratio: 1.05

CTAAGTTGCG
switch fluorescence ratio: 1.01

GCTGTCTTTT
switch fluorescence ratio: 1.03

GACGCGCGT
switch fluorescence ratio: 0.977

TGCTACAGAA
switch fluorescence ratio: 1.04

GTTTGGCGCG
switch fluorescence ratio: 1.01

CAGGTGCGGT
switch fluorescence ratio: 1.46

AGGCGTCCGT
switch fluorescence ratio: 0.991

AGAACTAGCA
switch fluorescence ratio: 0.993

GATGGTAGCG
switch fluorescence ratio: 0.934

CCCGACGGAT
switch fluorescence ratio: 1.25

TGAGCTCTTC
switch fluorescence ratio: 0.989

AGGCTGCTCT
switch fluorescence ratio: 0.995

GGTGCGTTGA
switch fluorescence ratio: 1

GGTAACGCAC
switch fluorescence ratio: 1.77

CTGCGAGAAT
switch fluorescence ratio: 1.05

TAAGTTAATT
switch fluorescence ratio: 1.05

AGTGCTTGCA
switch fluorescence ratio: 0.937

TACGTTTCG
switch fluorescence ratio: 0.998

AGATAATGTG
switch fluorescence ratio: 1.04

TAAGATTCTC
switch fluorescence ratio: 1

ATATCAAATC
switch fluorescence ratio: 1

CCACGCGATG
switch fluorescence ratio: 3.14

TTCACAAGCA
switch fluorescence ratio: 1.08

CCCCTGGTTA
switch fluorescence ratio: 1.08

AGTTTTCGAC
switch fluorescence ratio: 1.01

CAAAATGATC
switch fluorescence ratio: 0.96

TCGGTGGCAG
switch fluorescence ratio: 0.981

CGTGAATTT
switch fluorescence ratio: 0.981

AGGCCAAGTA
switch fluorescence ratio: 0.988

GCGCCCGCCA
switch fluorescence ratio: 1.07

GCGTCTTGAG
switch fluorescence ratio: 1.02

CTAAGCACCG
switch fluorescence ratio: 1.09

TGAGTCCGTG
switch fluorescence ratio: 1.08

CCCGAACTGA
switch fluorescence ratio: 0.967

AACTCAATCG
switch fluorescence ratio: 0.964

TTGATGAATC
switch fluorescence ratio: 0.997

TGATCGGAGT
switch fluorescence ratio: 1

AAGCCGCTGG
switch fluorescence ratio: 1.04

ACAAAGGCGA
switch fluorescence ratio: 1.06

GCCACTCAGA
switch fluorescence ratio: 1.01

GCGACCTCTG
switch fluorescence ratio: 1.08

CAACGACTAC
switch fluorescence ratio: 1.6

GGCAGTGGTC
switch fluorescence ratio: 0.984

CTTTTTTCCT
switch fluorescence ratio: 1.02

ATCAATATAA
switch fluorescence ratio: 0.983

ACAGGATAT
switch fluorescence ratio: 1.02

ATATTTTCCG
switch fluorescence ratio: 0.968

GTCAGACAGG
switch fluorescence ratio: 1.02

CGTTAAAAGC
switch fluorescence ratio: 1.01

GGAGATGATT
switch fluorescence ratio: 1.01

ACAGTTTCTT
switch fluorescence ratio: 0.965

GGTTTGAAG
switch fluorescence ratio: 0.981

GTAGAGTTGA
switch fluorescence ratio: 0.979

ATGTTACCTT
switch fluorescence ratio: 1.12

ATACTGTAAC
switch fluorescence ratio: 1.22

TGCACCCCGC
switch fluorescence ratio: 1.21

GCGGCCGGGC
switch fluorescence ratio: 1.03

CTGCCGACGG
switch fluorescence ratio: 1.18

GACTCAGTAG
switch fluorescence ratio: 1.02

ATAGGCTGCT
switch fluorescence ratio: 0.965

ATGATAGCTC
switch fluorescence ratio: 0.942

TGCGAGGTGT
switch fluorescence ratio: 1.01

GGCTAAATTA
switch fluorescence ratio: 0.974

From the supplement of paper PMC10126150
